# Experimental data published in PubChem BioAssay AID1347073 (National Center for Advancing Translational Sciences (NCATS), 2019).
# The whole screen tested about 45,000 compounds, of which about 200 (0.44%) were called active. Inconclusive results (about 7%) are left out. The call rests on the fitted dose curve; in most records, active means well fitted activation curve with a large enough effect; inconclusive means small, poorly fitted or top-dose-only effect; inactive means no such curve, though single readings can be large or run the other way. The list shows a part of the results.
# Assay: qHTS of TDP-43 Inhibitors: NCGC Sytravon Library Screen; further: 0% is about no effect; nearly all actives have a fitted effect of over 55% in size
# Settings: yeast TDP-43 toxicity rescue, BacTiter-Glo growth, 24 h; series mostly up to 46.1 µM; growth rescue (activation): at the top concentration
# Procedure, shortened: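 TDP-43-expressing yeast, pregrown in raffinose, seeded at OD600 0.02 in galactose medium with compound for 24 hr at 30 deg C. Growth read by BacTiter-Glo luminescence, so rescue of toxicity appears as activation.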
row,SMILES,growth rescue (activation)
1,Cc1nnc(SCc2ccccc2)c2cc3sccc3n12,inactive: 25.4%
2,CCOC(=O)C(=O)N1CCN(CC)CC1,inactive: 6.73%
3,O=C(CN1CCN(C(=O)CN2C(=O)NC3(CCCC3)C2=O)CC1)Nc1cccc(F)c1,inactive: 34.4%
4,O=C(/C=C/Nc1ccc(Br)cc1F)c1ccccc1,inactive: -10.3%
5,Cc1ccc(NC(=O)C2Cc3ccccc3CN2C(=O)c2ccco2)cc1S(=O)(=O)N(C)C (stereo not given),inactive: -0.631%
6,COc1nccnc1NS(=O)(=O)c1ccc(NC(=O)c2ccc(F)cc2)cc1,inactive: 11.4%
7,Cc1ccc(NC(=O)CCC(=O)N/N=C/C=C/c2ccccc2)cc1,inactive: 7.91%
8,COc1ccccc1C(C)NC(=O)Cc1ccsc1 (stereo not given),inactive: 9.28%
9,COc1ccc(N2C(=O)C(Cl)=C(Nc3ccccc3OC)C2=O)cc1,inactive: 17.7%
10,COc1ccc(NC(=S)NCC(O)c2ccccc2)c(OC)c1 (stereo not given),inactive: -7.24%
11,O=C1[C@@H]2[C@@H]3C[C@@H]([C@H]4ON=C(c5ccc(OCc6ccccc6)cc5)[C@@H]34)[C@@H]2C(=O)N1c1ccc2c(c1)OCO2,inactive: 27.1%
12,CCCCc1ccc(S(=O)(=O)NC(=O)C2(C)CCN2C(=O)CC2CC2)cc1 (stereo not given),inactive: 2.43%
13,O=C(Nc1ccccc1C(=O)N1CCCCC1)c1ccccc1C(F)(F)F,inactive: 24.1%
14,COc1ccc(CCNC(=O)C2CCCN(C(=O)c3ccc(Cl)cc3)C2)cc1 (stereo not given),inactive: -16.7%
15,COCc1c(C(=O)Nc2cccc(S(=O)(=O)N3CCCCC3)c2)oc2ccccc12,inactive: -1.93%
16,COC(=O)c1c(C)[nH]c(C(=O)OCC(=O)c2c(N)n(CC(C)C)c(=O)n(C)c2=O)c1C,inactive: -1.16%
17,Cc1ccc(S(=O)(=O)N(Cc2cc3cccc(C)c3[nH]c2=O)c2ccccc2)cc1,inactive: -2.28%
18,O=C(NNC(=O)c1ccc2c(c1)OCO2)NC12CC3CC(CC(C3)C1)C2,inactive: 4.01%
19,CCCn1nc(C(=O)N2CCN(c3ccccn3)CC2)c2ccccc2c1=O,inactive: -6.39%
20,CCOC(=O)C1(CCCc2ccccc2)CCN(C(=O)C2CCCO2)CC1 (stereo not given),inactive: 22.9%
21,CCOCCc1c(O)nc(SCC(=O)N2CCOCC2)[nH]c1=O,inactive: 4.85%
22,CC(=O)N1CCN(c2ccc(NC(=O)/C=C/c3ccccc3)cc2)CC1,inactive: 0.261%

row,SMILES,growth rescue (activation)
1,O=C(NCCCNC(=O)c1ccccn1)c1ccc(Cl)cc1,inactive: -10.1%
2,Cc1cc(C)cc(NC(=O)CSc2nc3[nH]c(=O)cc(O)c3s2)c1,inactive: 4.49%
3,O=C(CNC(=O)c1ccccc1)N/N=C/c1cccs1,inactive: 0.716%
4,COc1ccccc1N(CC(=O)N1CCCC1)S(=O)(=O)c1ccc(C)cc1,inactive: 10%
5,CCOC(=O)C(Cc1ccccc1)C(=O)Nc1ccc(NC(=O)C(Cc2ccccc2)C(=O)OCC)cc1 (stereo not given),inactive: 7.28%
6,Cc1ccc(C(=O)N2CCN(C)CC2)cc1S(=O)(=O)N1CCOCC1,inactive: -11.5%
7,CCN(CC)CCN1C(=O)C(=O)/C(=C(/O)c2ccc(OC)cc2)C1c1ccco1 (stereo not given),inactive: 14.2%
8,CCOc1ccc(N(CC(=O)Nc2ccc(C)c(C)c2)S(=O)(=O)c2c(C)[nH]c(=O)[nH]c2=O)cc1,inactive: 6.79%
9,O=C(CNC(=O)c1ccccc1)NCC(O)c1ccc([N+](=O)[O-])cc1 (stereo not given),inactive: 2.18%
10,CC1(C)Oc2ccc(C(=O)N3CCOCC3)cc2N(CC(=O)N2CCOCC2)C1=O,inactive: 28.8%
11,NC(=O)c1cccc(-c2coc3c(C(=O)NCCc4ccccc4)cccc23)c1,inactive: 12.5%
12,N/C(=N\OC(=O)N1CCOCC1)c1ccc(Cl)cc1,inactive: 20%
13,O=C(NCc1cccnc1)NC(C(F)(F)F)C(F)(F)F,inactive: 24.3%
14,COC(=O)c1ccc(NC(=S)NC(=O)c2c(Cl)cnn2C)cc1,inactive: 11.7%
15,C/C(=C1/SC(=S)N(CCC(=O)O)C1=O)c1ccc(O)cc1,inactive: -8.18%
16,CCS(=O)(=O)N1CCN(c2ncnc3sc(C)c(C)c23)CC1,inactive: 22.3%
17,O=C(Nc1ccccc1Cl)c1cc[n+]([O-])cc1,inactive: -13.4%
18,Cc1ccc(S(=O)(=O)Cn2nnnc2C(CC(C)C)N2CCN(C(=O)c3ccco3)CC2)cc1 (stereo not given),inactive: 8.74%
19,C=CCNC(=O)CSc1nnc(-c2ccccn2)n1Cc1ccccc1,inactive: -4.9%
20,CC1CCN(C2=C(NS(=O)(=O)c3ccc(Cl)cc3)C(=O)c3ccccc3C2=O)CC1,inactive: -10.2%
21,CCCOc1cccc(C(=O)NCCNC(=O)c2cnccn2)c1,inactive: 17.5%
22,Cc1cccc(OCc2n(CC(=O)OC3CC(C)CCC3C(C)C)c3ccccc3[n+]2C)c1 (stereo not given),inactive: 1.55%

row,SMILES,growth rescue (activation)
1,CCCNC(=O)CCn1nc(-c2ccccc2)c2ccccc2c1=O,inactive: -0.531%
2,Cc1nc2ccccc2nc1N/N=C/c1ccc(O)cc1O,inactive: -2.43%
3,CCOc1ccccc1C1CC(=O)NC(SCC(=O)Nc2nccs2)=C1C#N (stereo not given),inactive: 9.17%
4,COc1ccccc1N1CCN(C(=O)/C=C/c2c(Cl)nc3ccccn23)CC1,inactive: 28.3%
5,NC(Cc1ccc(C(F)(F)F)cc1)c1csc(Nc2ccc(C(=O)NCCCO)cn2)n1 (stereo not given),inactive: 3.76%
6,CCc1cc2c(=O)c(-c3nc4ccccc4n3C)c(C)oc2c(CN(CC)CC)c1O,inactive: 9.29%
7,CCN(CC)S(=O)(=O)c1ccc(C(=O)OCC(=O)N2CCOCC2)cc1,inactive: 7.87%
8,COc1cc(C(=O)NC2Cc3ccccc3C2)ccc1OC1CCN(C(C)=O)CC1,inactive: 5.6%
9,CC(OC(=O)c1nsc(Cl)c1Cl)C(=O)NC1CCCCC1 (stereo not given),inactive: 11.3%
10,CC1(C)C2CC=C(/C=N/NC(=S)Nc3cccnc3)C1C2 (stereo not given),inactive: 6.84%
11,Cc1c(NC(=O)C(C)OC(=O)c2cccc(S(=O)(=O)N(C)C)c2)c(=O)n(-c2ccccc2)n1C (stereo not given),inactive: 14.4%
12,CCCCn1c(=O)[nH]c(=O)c2c1nc(-c1ccc(OC(F)F)c(OC)c1)n2C,inactive: -5.19%
13,Cc1ccc(-c2nc(NC(=O)CSc3ncnc4sc5c(c34)CCC(C)C5)ns2)cc1 (stereo not given),inactive: 2.85%
14,COCc1cccc(-c2csc(C(O)c3ccc(OC)cc3)n2)c1 (stereo not given),inactive: 29.5%
15,Cc1ccc(C)c(S(=O)(=O)/N=C(/Nc2ccccc2)c2ccccc2)c1,inactive: 37%
16,CCOC(=O)c1c(C)[nH]c(C(=O)COC(=O)c2ccc([N+](=O)[O-])o2)c1C,inactive: 13.2%
17,Cc1ccc(NC(=O)CN(C)C(=O)c2ccc(S(=O)(=O)N(C)c3ccccc3)cc2)cc1,inactive: -3%
18,COCCNC(=O)c1cccc(OC2CCN(Cc3ccccc3OCCO)CC2)c1,inactive: -9.07%
19,COc1ccc(NC(=O)c2cc(C3CCCCN3C(=O)OCC(C)C)on2)c(C)c1 (stereo not given),inactive: 21.8%
20,CC1(c2ccc(OC(F)F)cc2)NC(=O)N(/N=C/c2c(O)ccc3ccccc23)C1=O (stereo not given),inactive: -40%
21,Cc1cc(N)n(-c2nc3ccccc3s2)n1,inactive: -3.29%
